Assay results: the supplement of paper PMC9174493
Some of the results follow. Single values of this set are uncertain. Values with irradiation are relative to irradiated vehicle.

system: A549-Dual; experiment: NF-kB reporter (SEAP) activity, viability-corrected, relative to vehicle (fold change vs vehicle); higher = more activation of STING-IRF / NF-kB immune response reporter; details: 0.1 µM; irradiation: none
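Note: viability correction based on the alamar blue assay, with concentrations leaving 10% survival or less dropped.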

Question: How did the NF-kB reporter turn out when `Cn1cnc([N+](=O)[O-])c1Sc1ncnc2nc[nH]c12` [Azathioprine] was run?
Answer: 1.34

Question: With `O=c1ccc2cc3ccoc3cc2o1` [Psoralen] as the compound, how does the NF-kB reporter read?
Answer: 0.711

Question: For `CCC(=O)NS(=O)(=O)c1ccc(-c2c(-c3ccccc3)noc2C)cc1` [Parecoxib], which NF-kB reporter is on record?
Answer: 1.27

Question: With `COc1ccc(-c2ccc3cc(C(=O)O)ccc3c2)cc1C12CC3CC(CC(C3)C1)C2` [Adapalene] as the compound, how does the NF-kB reporter read?
Answer: 1.24

Question: With `CCC(C(=O)O)c1ccc(N2Cc3ccccc3C2=O)cc1` (stereo not given) [Indobufen] as the compound, how does the NF-kB reporter read?
Answer: 0.94

Question: `COC1CC2CCC(C)C(O)(O2)C(=O)C(=O)N2CCCCC2C(=O)OC(C(C)CC2CCC(O)C(OC)C2)CC(=O)C(C)/C=C(\C)C(O)C(OC)C(=O)C(C)CC(C)/C=C/C=C/C=C/1C` (stereo not given) [Rapamycin (Sirolimus)] was tested. Which NF-kB reporter did it give?
Answer: 1.23

Question: For `COc1ccc(C2CNC(=O)C2)cc1OC1CCCC1` (stereo not given) [Rolipram], which NF-kB reporter is on record?
Answer: 1.27

Question: With `Nc1nc(N)c2nc(-c3ccccc3)c(N)nc2n1` [Triamterene] as the compound, how does the NF-kB reporter read?
Answer: 0.952

Question: Which NF-kB reporter does the source give for `CN(C)CCN1C(=O)c2cccc3cc(N)cc(c23)C1=O` [Amonafide] here?
Answer: 1.22

Question: With `CN1CCCC1CCOC(C)(c1ccccc1)c1ccc(Cl)cc1.O=C(O)/C=C/C(=O)O` (stereo not given) [Clemastine Fumarate] as the compound, how does the NF-kB reporter read?
Answer: 1.23

Question: `CC12C=CC(=O)C=C1CCC1C3CC(O)C(O)(C(=O)CO)C3(C)CC(O)C12F` (stereo not given) [Triamcinolone] was tested. Which NF-kB reporter did it give?
Answer: 1.04

Question: How did the NF-kB reporter turn out when `CC1CC2C3CCC4=CC(=O)C=CC4(C)C3C(=O)CC2(C)C1(O)C(=O)CO` (stereo not given) [Meprednisone] was run?
Answer: 1.32

Question: With `CCS(=O)(=O)O.COC(=O)c1ccc2c(c1)NC(=O)/C2=C(\Nc1ccc(N(C)C(=O)CN2CCN(C)CC2)cc1)c1ccccc1` [Nintedanib Ethanesulfonate Salt] as the compound, how does the NF-kB reporter read?
Answer: 1.17

Question: Which NF-kB reporter does the source give for `CCCCCCCCCCCCCCCCCCOP(=O)([O-])OC1CC[N+](C)(C)CC1` [Perifosine (KRX-0401)] here?
Answer: 0.998

Question: `CCC1(O)CC2CN(CCc3c([nH]c4ccccc34)C(C(=O)OC)(c3cc4c(cc3OC)N(C=O)C3C(O)(C(=O)OC)C(OC(C)=O)C5(CC)C=CCN6CCC43C65)C2)C1` (stereo not given) [Vincristine] was tested. Which NF-kB reporter did it give?
Answer: 2.06

Question: For `Cl.Nc1ccn(C2OC(CO)C(O)C2O)c(=O)n1` (stereo not given) [Cytarabine hydrochloride], which NF-kB reporter is on record?
Answer: 1.1

Question: How did the NF-kB reporter turn out when `CC(=O)OC(C)C(C)C(=O)OCC12C3CC4(C)C(=CCC5C6(C)CCC(OC7OC(C(=O)[O][Na])C(OC8OC(CO)C(O)C(O)C8O)C(O)C7OC7OCC(O)C(O)C7O)C(C)(CO)C6CCC54C)C1CC(C)(C)C(O3)C2O` (stereo not given) [Sodium Aescinate] was run?
Answer: 1.35

Question: How did the NF-kB reporter turn out when `CCC(=O)OC1(C(=O)SCF)C(C)CC2C3CC(F)C4=CC(=O)C=CC4(C)C3(F)C(O)CC21C` (stereo not given) [Fluticasone propionate] was run?
Answer: 0.888

Question: Which NF-kB reporter does the source give for `CCCCC1(COC(=O)CCC(=O)O)C(=O)N(c2ccccc2)N(c2ccccc2)C1=O` [Suxibuzone] here?
Answer: 1.58

Question: `CS(=O)(=O)Nc1cc2occ(NC=O)c(=O)c2cc1Oc1ccccc1` [Iguratimod] was tested. Which NF-kB reporter did it give?
Answer: 1.62

Question: For `COc1cc2nccc(Oc3ccc(NC(=O)Nc4cc(C)on4)c(Cl)c3)c2cc1OC` [Tivozanib (AV-951)], which NF-kB reporter is on record?
Answer: 0.979

Question: Which NF-kB reporter does the source give for `Cc1ccc(S(=O)(=O)O)cc1.NC(=O)c1cccc2cn(-c3ccc(C4CCCNC4)cc3)nc12` (stereo not given) [Niraparib (MK-4827) tosylate] here?
Answer: 0.963

Question: Which NF-kB reporter does the source give for `CC(C)OC(=O)CCC/C=C\CC1C(O)CC(O)C1CCC(O)CCc1ccccc1` (stereo not given) [Latanoprost] here?
Answer: 0.473

Question: With `O=c1[nH]cc(F)c(=O)[nH]1` [Fluorouracil (5-Fluoracil, 5-FU)] as the compound, how does the NF-kB reporter read?
Answer: 1.06

Question: `CC1(C(=O)O)CCC2(C)CCC3(C)C(=CC(=O)C4C5(C)CCC(OC6OC(C(=O)O)C(O)C(O)C6OC6OC(C(=O)O)C(O)C(O)C6O)C(C)(C)C5CCC43C)C2C1.N.N` (stereo not given) [Diammonium Glycyrrhizinate] was tested. Which NF-kB reporter did it give?
Answer: 1.37

Question: For `CC1(C)CCC(CN2CCN(c3ccc(C(=O)NS(=O)(=O)c4ccc(NCC5CCOCC5)c([N+](=O)[O-])c4)c(Oc4cnc5[nH]ccc5c4)c3)CC2)=C(c2ccc(Cl)cc2)C1` [Venetoclax (ABT-199, GDC-0199)], which NF-kB reporter is on record?
Answer: 1

Question: With `CCN(CC)Cc1cc(Nc2ccnc3cc(Cl)ccc23)ccc1O.Cl.Cl` [Amodiaquine hydrochloride] as the compound, how does the NF-kB reporter read?
Answer: 1.12

Question: `CCN(C(=O)c1c(O)c2c(Cl)cccc2n(C)c1=O)c1ccccc1` [Laquinimod] was tested. Which NF-kB reporter did it give?
Answer: 1.9

Question: For `O=C(c1ccc(OCCN2CCCCC2)cc1)c1c(-c2ccc(O)cc2)sc2cc(O)ccc12` [Raloxifene], which NF-kB reporter is on record?
Answer: 0.996

same assay, conditions: 0.3 µM; irradiation: 8 Gy/4 fr

Question: With `CCC(=O)OCC(=O)C1(OC(=O)CC)C(C)CC2C3CCC4=CC(=O)C=CC4(C)C3(Cl)C(O)CC21C` (stereo not given) [Beclomethasone dipropionate] as the compound, how does the NF-kB reporter read?
Answer: 0.749
